Test results: the supplement of paper PMC10338343
± gives the standard deviation. The list shows a part of the results, in another mix than the full data.

Test system: MIWI (PIWIL1) piRISC loaded with L1MC piRNA (30 nt)
Assay: pre-steady-state target cleavage rate (min^-1); MIWI and MILI are mouse PIWI proteins and EfPiwi is from a freshwater sponge; tags in brackets are library labels; higher = faster piRNA-guided slicing of the target
Details: guide: L1MC piRNA 5'p-UAACUAAAUACUAUGCAAGCUGUAGGUCCU
Summary of the method: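 Cleave-'n-Seq: 1 nM active affinity-purified piRISC with one synthetic guide and 0.1 nM transcribed, DNA-blocked target RNA library were mixed, with or without 500 nM GTSF1 partner protein, in HEPES–potassium acetate buffer at 33 °C for 0–8 or 0–960 min. Uncleaved targets were sequenced and normalised to depth and to weakly complementary targets, three trials were pooled, and k3 was capped at 0.0001 min^-1. The pre-steady-state cleavage rate was fitted […].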

[1] = auxiliary factor: 500 nM mouse GTSF1
[2] = auxiliary factor: none (no GTSF1)

Row | Sequence | pre-steady-state target cleavage rate [1] | pre-steady-state target cleavage rate [2]
1 | UCGACCUACAGCUAGCAUAGUAUUAAGUUA | 0.945 ± 0.056 | 0.00724 ± 0.0022
2 | UCCUGGAACAGCUUGCUUAGUAUUUAGAUA | 0.451 ± 0.041 | 0.0147 ± 0.0045
3 | UCCUGGAUGAGCUUGCUUAGUUUUUAGUUA | 0.0242 ± 0.0064 | 0.00971 ± 0.0022
4 | UCCUGGAUGUCCUUGCAUAGUAUCUAGUUA | 0.108 ± 0.022 | 0.00768 ± 0.0018
5 | UCCUGGUACUAGCUUGCAUAGUAUUUAGUUA | 0.15 ± 0.031 | 0.0352 ± 0.008
6 | UCCUGGAUCAGCUUGGAUAGUAAUUAGUUA | 0.27 ± 0.023 | 0.0147 ± 0.0047
7 | UCCACCUACUGCUUGCAUAGUAUAUAGUUA | 0.263 ± 0.029 | 0.0203 ± 0.0038
8 | UCGACGUACAGCUUGCAUAGUUUUUAGUUA | 0.428 ± 0.016 | 0.0269 ± 0.0059
9 | UCGAUCCUACAGCUUGCAUAGUAUUUAGUUA | 1.49 ± 0.042 | 0.0686 ± 0.013
10 | UGGACCUACAGCAUGCAUAGUUUUUAGUUA | 0.43 ± 0.026 | 0.0174 ± 0.005
11 | UCGACCUACAGCUAGCAUACUAUUUAGUUA | 0.349 ± 0.023 | 0.0141 ± 0.0029
12 | ACGACCUACAGCUUGCAUAGUUUUUAGUUA | 0.561 ± 0.027 | 0.0565 ± 0.013
13 | UCCUGGUACAGCUUGCAUAGUAUUUGGUUA | 0.449 ± 0.037 | 0.0417 ± 0.0074
14 | UCCUGGUACAGGUUGCAUACUAUUUAGUUA | 0.366 ± 0.064 | 0.013 ± 0.0054
15 | UCCUGGUACAGCUUGCAUUGAAUUUAGUUA | 0.114 ± 0.02 | 0.00906 ± 0.002
16 | UCCUGGAACAGCUUGCAUAGUAUUUAGUUUA | 0.927 ± 0.049 | 0.0571 ± 0.012
17 | UCCUGGAUGUGCUUGCAUAGUAUUUAUUUA | 0.0715 ± 0.018 | 0.0169 ± 0.0037
18 | UCCUGGAUCAGCUGGCAUAGUAUUUAGUUA | 0.833 ± 0.053 | 0.0168 ± 0.0051
19 | UGGAACUACAGCUUGCAUAGUAUUUAGUUA | 1.09 ± 0.041 | 0.0698 ± 0.011
20 | UCCACCUAGAGCUUGCAUAGUAUUUACUUA | 0.358 ± 0.049 | 0.0215 ± 0.0036
21 | UCCACCAACAGCUAGCAUAGUAUUUAGUUA | 0.97 ± 0.033 | 0.0197 ± 0.0045
22 | UCGACCUACUGCUUGCAUAGUAUUUAGUUA | 1.41 ± 0.035 | 0.0694 ± 0.011
23 | UGGACCUACACCUUGCAUAGUAUUUAGAAA | 0.42 ± 0.059 | 0.0133 ± 0.0042
24 | UCGACCUACAGCUUGCAUAGUCUUUAGUUA | 0.863 ± 0.03 | 0.0449 ± 0.01
25 | UCGACCUACUGCUUGCAUAGUAUUAAGUUA | 0.588 ± 0.028 | 0.0292 ± 0.0051
26 | UCCUGGAUCAGCUUGCAUAGUAUUCAGUUA | 0.509 ± 0.046 | 0.0165 ± 0.0045
27 | UCCUGGAAGAGCUUGCAUAGUAUUUAGAUA | 0.41 ± 0.046 | 0.0195 ± 0.0054
28 | UCCUGGAUCAGCUUGCAUACUAUUUAGUUA | 0.318 ± 0.023 | 0.0356 ± 0.0087
